# In ChEMBL document CHEMBL1201862, “PubChem BioAssay data set” (2004):
#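 Assay format: 96-well plates, 48-hour exposure. GI50: concentration for 50% inhibition of growth.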 Active and inactive are the calls of the source. No stated cut-off is given here; in the data, active = GI50 up to about 1.1 µM and inactive = higher.
# System: NCI-H322M
# Assay: inhibition of tumour cell growth, NCI panel, 48 h
row,Compound,GI50
1,Nc1ncnc2c1ncn2CCCCC(=O)O,inactive: > 100 µM
2,O=C(NN1C(=O)C(Cl)C1c1ccccc1Cl)c1ccccc1O (configuration not stated),inactive: > 100 µM
3,CC(=O)Nc1ccc(-c2nc3ccccc3s2)cc1I,inactive: 31.8 µM
4,Nc1nc(Cl)cc(NCCO)n1,inactive: > 100 µM
5,N=C(Nc1nc(-c2ccccn2)cc2ccccc12)c1ccccn1,active: 0.0293 µM
6,N#CC(CC(=O)O)=C(c1ccccc1)c1ccccc1,inactive: > 100 µM
7,CC#Cc1cc2c(cc1O)CC[C@@H]1[C@@H]2CC[C@]2(C)[C@@H](O)CC[C@@H]12,inactive: 4.08 µM
8,COc1cccc(C2c3cc4c(cc3OC(N3CCCC3)C2C)OCO4)c1O (configuration not stated),inactive: 7.48 µM
9,CCOc1ccc2c(c1)C(/C(C(Cl)=C(Cl)Cl)=[N+](/[O-])OC(=O)c1ccccc1)=N2,inactive: > 100 µM
10,CN1CCN(Cc2ccccc2)CC1CC#N (configuration not stated),inactive: > 100 µM
11,Cc1cccc2c(O)cc(=O)oc12,inactive: > 100 µM
12,O=C(c1ccc2c3c(ccc(C(=O)C(F)(F)F)c13)CC2)C(F)(F)F,inactive: 27.8 µM
13,COC1/C=C(C)/C=C/C(C)/C=C/C(=O)OC(/C(C)=C/C=C(\C)CNC(=O)[C@H](CO)NC=O)C(C)/C=C/C=C/C(OC)CC/C=C(C)/C=C/C1 (some centres not stated),active: 0.0542 µM
14,COc1ccc(/N=N/c2c(-c3ccccc3)nn(C(=O)CC(=O)Nc3cccc(Cl)c3)c2-c2ccccc2)cc1,inactive: > 100 µM
15,COc1ccc(NC(=O)C(=O)C2CNC(=O)NC2=O)c(OC)c1 (configuration not stated),inactive: > 100 µM
16,N#Cc1nc(-c2ccccc2O)oc1N,inactive: 92.5 µM
17,[N-]=[N+]=NI1OC(=O)c2ccccc21,inactive: > 100 µM
18,CSCCC(NC(c1ccccc1)c1ccccc1)[PH](=O)O (configuration not stated),inactive: > 100 µM
19,CS/C(=C(\S)c1ccccc1)c1ccccc1,inactive: > 100 µM
20,COc1cc(CN(C)N2C(=O)c3cccc4cc([N+](=O)[O-])cc(c34)C2=O)cc(OC)c1OC,inactive: > 100 µM
21,CC1=NN(c2cccc(Cl)c2)C2(C1=Cc1ccc(O)cc1)C(Cl)C(=O)N2c1nc2ccccc2s1 (configuration not stated),inactive: 22.6 µM
22,CN(C)c1nncc2[nH]nnc12,inactive: > 100 µM
23,Cn1c(=O)c2c(no[n+]2[O-])n(C)c1=O,inactive: > 100 µM

row,Compound,GI50
1,N=C(N)NCC[C@H](NC(=O)OCCCCCn1ccc(=O)[nH]c1=O)C(=O)O,inactive: > 100 µM
2,O=C(c1ccccc1)[C@H]1Nc2ccc(Cl)cc2[C@H]2OCCC[C@@H]12,inactive: 22.9 µM
3,c1ccc(Nc2nnc(CSc3nc(-c4ccccc4)c(-c4ccccc4)[nH]3)s2)cc1,inactive: 31.1 µM
4,O=C1NC(=O)C(C(=O)C(=O)Nc2cc(Cl)ccc2Cl)C(=O)N1,inactive: > 100 µM
5,COc1ccc2[nH]c(CCNC(=O)c3cc([N+](=O)[O-])cc([N+](=O)[O-])c3)cc2c1,inactive: > 100 µM
6,CN(CCCCN1CCCC1)CCCN(C)C(=O)Cc1ccc(Cl)c(Cl)c1,inactive: 16.4 µM
7,O=S(=O)(c1ccccc1)c1nccs1,inactive: > 100 µM
8,O=S1(=O)OCCOS(=O)(=O)C1Cc1ccccc1,inactive: 68.5 µM
9,COC(=O)c1cc2c(o1)Sc1ccccc1NC2=O,inactive: > 100 µM
10,CC(C)=NN/C(=N\c1ccc(Cl)cc1)NS(=O)(=O)c1ccc(Oc2cccc(Cl)c2C#N)cc1,inactive: > 100 µM
11,NC1(c2cc3ccccc3s2)CCCC1,inactive: 66.7 µM
12,COC(=O)/C=C/C(=O)Nc1cc(Cl)c(Cl)cc1CC(=O)N(C)[C@H]1CCCC[C@@H]1N1CCCC1,inactive: 17 µM
13,Cc1ccccc1-n1c(C)nc2c1C(=O)c1ccccc1C2=O,inactive: 81.7 µM
14,CN(C)c1ccc(/C=C2\C[C@H]3[C@@H]4CC=C5C[C@@H](O)CC[C@]5(C)[C@H]4CC[C@]3(C)[C@H]2O)cc1,inactive: 12.5 µM
15,CN(C)CCC(/C=C/c1ccccc1)=N\Nc1c(F)c(F)c(F)c(F)c1F,inactive: > 100 µM
16,c1cc2nnc1SCCSCCCSCCS2,inactive: > 100 µM
17,CC1=CC[C@H](C(C)C)C(C(O)[C@@H](C)O[Si](c2ccccc2)(c2ccccc2)C(C)(C)C)C1=O (some centres not stated),inactive: 23 µM
18,COC(=O)/C=C/C1(O)C=CC(=O)C=C1,inactive: 15 µM
19,CCCCCCCCCCCCCCCCCCNc1ccn(C2OC(CO)C(O)C2O)c(=O)n1 (configuration not stated),inactive: > 100 µM
20,CC(C)(C)CC(C)(C)c1cc2c(O)c(c1)Cc1cc(C(C)(C)CC(C)(C)C)cc(c1O)Cc1cc(C(C)(C)CC(C)(C)C)cc(c1O)Cc1cc(C(C)(C)CC(C)(C)C)cc(c1O)Cc1cc(C(C)(C)CC(C)(C)C)cc(c1O)Cc1cc(C(C)(C)CC(C)(C)C)cc(c1O)C2,inactive: > 100 µM
21,C#CCn1c2c(c3ccccc3c1=O)C(=O)c1ccccc1-2,inactive: 17.8 µM
22,O=C(Nc1cccc(NC(=O)C(=O)C2CCC3=C(Sc4ccccc4N3)C2=O)n1)C(=O)C1CCC2=C(Sc3ccccc3N2)C1=O (configuration not stated),inactive: > 100 µM
23,C#CCC(O)c1ccc(OC)c(OCc2ccccc2)c1 (configuration not stated),inactive: > 100 µM

row,Compound,GI50
1,Cc1ccc(S(=O)(=O)CNC(=S)CCCC(=S)NCS(=O)(=O)c2ccc(C)cc2)cc1,inactive: > 100 µM
2,COc1ccc(/C(Cl)=C/c2cc(OC)ccc2OC)cc1,inactive: > 100 µM
3,O=[N+]([O-])c1ccc(Cl)c(C2CC(c3cccc4ccccc34)=Nc3ccccc3[S+]2[O-])c1 (configuration not stated),inactive: 33.3 µM
4,CCN(CC)C(=S)SS(=O)(=O)c1ccc(Cl)cc1,inactive: > 100 µM
5,COC(=O)C1=C(C)NC(C)=C(C(=O)OC)C1c1cccc(N=O)c1,inactive: > 100 µM
6,O=C1OC2c3ccccc3C(=O)C2(c2ccccc2)N1c1ccccc1 (configuration not stated),inactive: > 200 µM
7,COc1ccc2c(c1)O[C@@H]1[C@@H](OC3OC(CO)C(O)C(O)C3O)Oc3cc(OC)c(OC)cc3[C@]1(O)C2=O (some centres not stated),inactive: > 100 µM
8,COc1ccc2c(c1)C1=NCCN(CCN(C)C)c3ccc([N+](=O)[O-])c(c31)N2,active: 0.307 µM
9,Nc1c2cc3ccc2nc2ccc(cc12)OCCOCCOCCOCCOCCOCCO3,inactive: > 10 µM
10,CSc1nc2c(c(N(C)C)n1)C(O)n1c(nc3ccccc31)S2 (configuration not stated),inactive: 98.9 µM
11,CC(=C(C(N)=O)C(N)=O)C1C=C(c2cccs2)CC(c2ccc(Cl)cc2)=C1O (configuration not stated),inactive: > 100 µM
12,COC(=O)CC(c1ccccc1)C(C#N)(OP1(=O)OC(c2ccccc2)C(C)N1C)c1ccccc1 (configuration not stated),inactive: > 100 µM
13,CC1(C)O[C@@H]2[C@@H]3OC(=O)C[C@@H]3[C@@H](COCc3ccccc3)[C@@H]2O1,inactive: > 100 µM
14,C[C@]12CC[C@H]3[C@@H](CCC4=CC(=O)C=C[C@@]43O)[C@@H]1CCC2=O,inactive: 68.4 µM
15,Nc1c2c(nc3cc(F)c(F)cc13)CCC2,inactive: 44.3 µM
16,N#CCCN(CCCN(C(=O)N(c1ccccc1)c1ccccc1)c1ccccc1)C(=O)Nc1ccccc1,inactive: > 100 µM
17,CC1(C)C2CCC(O)(C2)C1N (configuration not stated),inactive: > 100 µM
18,C/C(=N/NC(=S)NCCc1ccccn1)c1cnccn1,inactive: 17.6 µM
19,O=C(/C=C/NC(=O)OCc1ccccc1)OCc1ccccc1,inactive: > 100 µM
20,COc1cccc2c(=O)c3c(n(C)c12)OC(C(C)C)C3 (configuration not stated),inactive: > 100 µM
21,CCOc1ccc(NC(=O)C(=O)Nn2c(N)nnc2N)cc1,inactive: > 100 µM
22,C=C/C=C/NC(=O)OCc1ccccc1,inactive: > 100 µM
23,COc1cc(Br)cc2nc(-c3cccs3)oc12,inactive: > 100 µM

row,Compound,GI50
1,Cc1cn(C2CC(N/C(=N/C#N)NCC3OC(n4cnc5c(N)ncnc54)CC3O)C(CO)O2)c(=O)[nH]c1=O (configuration not stated),inactive: > 100 µM
2,N/N=C(\C(=O)Nc1ccc(Cl)cc1Cl)C(c1cnc2ccccc2n1)[N+](=O)[O-] (configuration not stated),inactive: > 100 µM
3,CC(C)(C)C(=O)/C=C/c1cccc(Oc2ccccc2)c1,inactive: 18 µM
4,O=C(CCCCCC(=O)N1CC(CCl)c2ccc([N+](=O)[O-])cc21)N1CC(CCl)c2ccc([N+](=O)[O-])cc21 (configuration not stated),inactive: > 100 µM
5,COc1cc2c(cc1OCCCCOc1cc(-c3ccc(F)cc3)nc(C)n1)N=C[C@@H]1CCCN1C2=O,inactive: 1.26 µM
6,C=C(C)C1Cc2c(cc(O)c3c(=O)c4ccccc4n(C)c23)O1 (configuration not stated),inactive: > 100 µM
7,COc1ccc(Oc2cnn(C(Br)(Br)C(C)=O)c(=O)c2Br)cc1,inactive: 40.1 µM
8,O=C(CSc1nc2ccc(I)cc2c(=O)n1Cc1ccccc1)NN1C(=O)CCC1=O,inactive: 55.8 µM
9,COCNC(=NC#N)NCOC,inactive: > 100 µM
10,COC12CCC(C(C(=O)c3ccccc3)=C1C(=O)c1ccccc1)C(O)C2 (configuration not stated),inactive: > 100 µM
11,CCOC(=O)c1nc2ccc(C(F)(F)F)cc2nc1Nc1cc(OC)c(OC)c(OC)c1,inactive: > 100 µM
12,Clc1ccc(Oc2ccc(/N=C/c3ccc(Cl)cc3Cl)cc2Cl)cc1,inactive: 87.5 µM
13,C/C(Nc1ccc(Cl)cc1)=C1/CCOC1=O,inactive: 8.75 µM
14,CCOC(=O)Nc1ccc(S(=O)(=O)I)cc1.CCOC(=O)Nc1ccc(S(=O)(=O)I)cc1.CNC(=O)N=O.NC(=O)OCCCl,inactive: > 100 µM
15,CC(=O)OC1CC2C(C)(C)C(=O)C=C[C@]2(C)C2CCC3(C)C(c4ccoc4)C(=O)C4OC43[C@]12C (some centres not stated),inactive: 22.8 µM
16,CC1C[C@H](C)CC(C(O)CC2CC(=O)N(Cc3ccccc3)C(=O)C2)C1O (some centres not stated),inactive: > 100 µM
17,N#C/C(=C\c1ccc(O)cc1)C(N)=O,inactive: > 100 µM
18,COc1ccc(OC)c(-c2cc(=O)c3c(OC)c(OC)c(OC)c(OC)c3o2)c1,inactive: 35.7 µM
19,BrCCC[P+](c1ccccc1)(c1ccccc1)c1ccccc1,inactive: 73.6 µM
20,Cc1ccc(NC(=O)c2cccc([N+](=O)[O-])c2O)c(C)c1,inactive: 19.8 µM
21,C=C1CC[C@@H]2C(C)(C)CCC[C@@]2(C)[C@@H]1Cc1cc(O)ccc1O,inactive: 11.4 µM
22,O=C1Nc2ccc(Br)cc2/C1=N/NC(=S)Nc1ccc([N+](=O)[O-])cc1,inactive: 7.11 µM
23,COc1c(OC)c(OC)c(-c2cc(=O)c3c(OC)c(OC)c(OC)c(OC)c3o2)c(OC)c1OC,inactive: 35.4 µM
